In PubChem BioAssay AID1508624 (National Center for Advancing Translational Sciences (NCATS), 2021):
The whole screen tested about 48,000 compounds, of which about 120 (0.25%) were called active. Inconclusive results (about 4%) are left out. The call rests on the fitted dose curve; in most records, active means well fitted activation curve with a large enough effect; inconclusive means small, poorly fitted or top-dose-only effect, or another doubt; inactive means no such curve, though single readings can be large or run the other way. Some of the results follow.

test: Primary qHTS for Identification of Small Molecule Activators of Huntingtin-Antisense Promoter Activity; conditions: HEK293 HTT-AS promoter firefly luciferase reporter, 24 h; series mostly up to 57.5 µM; activity change, positive = activation: at the top concentration; further: nearly all actives have a fitted effect of over 55% in size
Outline: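 Firefly luciferase signal from promoter-reporter HEK293 cells was scaled between vehicle (0%) and zero RLU (-100%). Compounds were tested at final concentrations of up to 57.5 uM over 24 h at 37 degrees C. PTC124 at 50 uM final served as control inhibitor.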

Activity change, positive = activation, inactive:
COc1ccc(CCNCc2c(C(=O)O)c(C)n(Cc3cccc(C)c3)c2C)cc1OC -15.1%, Cn1c(Oc2cccc(Cl)c2)nc2c1c(=O)n(Cc1ccccc1Cl)c(=O)n2C -0.786%, COc1ccc(OCC(=O)N2CCN(C(=O)c3cccc(OC)c3OC)CC2)cc1 2.1%, CCCCN(C(=O)CCn1c(=O)oc2ccccc21)c1ccccc1 -13.8%, Cc1cccc(C=NNc2cc(N3CCOCC3)nc(OCCc3ccccn3)n2)c1 -28.1%, CCOc1ccc(-c2cc(CCCC(=O)NCCc3ccc(SC)cc3)no2)cc1 -79%, COCCn1c(C)cc(O)c(C(c2ccccc2Cl)N2CCN(c3ccccc3)CC2)c1=O (stereo unspecified) -5.05%, O=C(NCC(c1ccco1)S(=O)(=O)c1cccs1)c1c(F)cccc1F (stereo unspecified) 13%, CCN(CC)C(=O)c1sc2c(c1C)c(=O)n(Cc1ccccc1)c(=O)n2Cc1c(C)cc(C)cc1C -31.6%, Cc1cccc(NC(=O)Cn2c(=O)n(CC3CCC(C(=O)NCCc4ccccc4)CC3)c(=O)c3ccccc32)c1C (stereo unspecified) -9.28%, CC(C)(C)OC(=O)CN(Cc1ccc(Cl)cc1)Cc1ccc([N+](=O)[O-])s1 -14.1%, Cc1ccc2[nH]c(C)c(CCNC(=O)c3cc4cc(Br)ccc4oc3=O)c2c1 -16%, O=C(NCC(c1cccnc1)N1CCc2ccccc21)c1cccc(F)c1 (stereo unspecified) -22.8%, CCOC(=O)c1ccc(NC(=O)c2c(NCc3ccc(OC)c(OC)c3OC)sc3c2CCC(C)C3)cc1 (stereo unspecified) -15.5%, O=C(CN1C(=O)c2ccccc2Sc2ncccc21)Nc1cccc(C(F)(F)F)c1 -38.3%, COc1ccc(Nc2cc(C)c3cc(NC(=O)COc4cccc(C)c4)ccc3n2)cc1 -40%, COc1cccc(CNC(=O)C2=C(C)C(=O)OC23CCCCCC3)c1 -25.4%, COc1ccc2nc(NC(=O)c3nc(S(=O)(=O)Cc4ccc(C)cc4)ncc3Cl)sc2c1 -35.9%, Cc1cccc(N2CCN(C(=O)CCNS(=O)(=O)c3ccc4c(c3)CCN4C(=O)C3CC3)CC2)c1C -40.8%, CCOc1ccccc1NC(=O)CN(c1cc(C)cc(C)c1)S(=O)(=O)c1c(C)nn(C)c1C -25.4%, Cc1cc(C)c(Cn2cnc3nc4c(cc3c2=O)CCCC4)c(C)c1 -24%, CCOc1ccc(C(=O)NCC(c2ccc3c(c2)OCO3)N2CCN(C)CC2)cc1 (stereo unspecified) -8.03%, CCOc1ccc(NC(=O)N2CCC(n3c(C)nc4cccnc43)CC2)cc1 6.45%, CO[C@H]1O[C@@H]2O[C@@]3(C)CC[C@@H]4[C@@H](C)CC[C@@H]([C@H]1C)[C@@]24OO3 -13.6%, Cc1ccc(-c2nnc(Nc3ccc(O)cc3)c3ccccc23)cc1S(=O)(=O)NC(C)(C)CO -45.2%, CCOc1ccc(S(=O)(=O)N(CC(=O)Nc2ccc(OC)c(Cl)c2)c2ccccc2)cc1 -13.1%, Cc1nn2c(C)c(C(=O)NCc3cccc(Br)c3)cnc2c1-c1ccccc1 9.57%, Cc1cc(C)cc(NC(=O)C2CCN(c3nnc(-n4c(C)ccc4C)s3)CC2)c1 -9.29%, CCOC(=O)c1scc(-c2ccc(C)cc2)c1S(=O)(=O)N1CCN(c2ccccc2)CC1 -15.5%, CCc1cccc(NC(=O)CN(C)S(=O)(=O)c2ccc3c(c2)n(C)c(=O)c(=O)n3C)c1 -3.05%, CCOc1cc(C(=O)Nc2ccc3nc(N4CCN(C)CC4)cc(C)c3c2)cc(OCC)c1OCC -21.7%, COc1ccc(-c2noc(COc3ccc(C)cc3C)n2)cc1OC 0%, COc1ccc(-n2c(SCC(=O)Nc3ccc4c(c3)OCO4)nc3c([nH]c4ccccc43)c2=O)cc1 -26.3%, COc1ccc(S(=O)(=O)N(CC(=O)Nc2ccc(C)cc2)c2ccc(C)cc2)cc1OC -0.593%, Cc1oc2ncnc(N3CCCCC3)c2c1C(=O)N1CCN(c2ccc(Cl)cc2)CC1 1.11%, COc1ccccc1C(=O)Nc1ccc(S(=O)(=O)Nc2nc(C)cc(C)n2)cc1 -15.9%, COc1ccc(S(=O)(=O)N(CC(=O)NCCc2ccccc2)c2ccc(Cl)cc2)cc1 -22.4%, CCOC(=O)c1ccccc1NC(=O)CSc1cn(CC(=O)N2CCCCCC2)c2ccccc12 -36.9%, COc1ccc(NC(=O)c2ccco2)cc1NC(=O)c1cc(Br)ccc1Cl -24.7%, CCOc1ccc(C(=O)c2oc3ccccc3c2NC(=O)c2cc(=O)c3ccc(C)cc3o2)cc1 -9.21%, COc1ccc(-c2nc3c4ccccc4n(CC(=O)N4CCN(c5ccccc5F)CC4)c(=O)n3n2)cc1 -0.763%, CCCCN(CC)CCNC(=O)c1nn(C)c2c1CS(=O)(=O)c1ccccc1-2 7.73%, CCc1ccc(NC(=O)CCCc2nnc3n(C(C)CC)c(=O)c4sccc4n23)cc1 (stereo unspecified) -5.48%, COc1cc2c(cc1OC)C(COc1ccccc1OC)N(C(=O)c1ccc(S(=O)(=O)N(C)C)cc1)CC2 (stereo unspecified) -7.06%, Cc1ccc(Cl)cc1N1CCN(C(=O)COc2cc(=O)n(C)c3ccccc23)CC1 -36.8%, COc1ccc(Nc2nc3c(S(=O)(=O)c4ccc(C)cc4)nnn3c3ccsc23)cc1Cl -19.6%, Cc1ccc(/C=C/c2onc(C)c2S(=O)(=O)N2CCC(C(=O)N3CCN(c4cc(C)ccc4C)CC3)CC2)cc1 -29.8%, O=C(NOCC(O)CO)c1cc(Br)c(F)c(F)c1Nc1ccc(I)cc1F (stereo unspecified) -26.2%, CC(=O)N1CCc2c(sc3c2c(=O)n(Cc2ccccc2)c(=O)n3Cc2ccccc2Cl)C1 -47.2%, CCCCN(CC)C(=O)CSc1nc2ccccc2c(=O)n1Cc1ccco1 -32.4%, COc1cc(-c2nc(-c3ccccc3)c(-c3ccc(Br)cc3)[nH]2)cc(OC)c1O -14%, COc1ccc(NC(=O)C2CCN(c3ccc(Sc4ccc(C)cc4)nn3)CC2)cc1 -13.7%, COC(=O)c1cc2sc(Cl)cc2n1Cc1nc(-c2ccccc2C)oc1C 7.15%, CC1CN(C(=O)N2CCC(C(=O)NCc3cccs3)CC2)c2ccccc2O1 (stereo unspecified) -7.19%, CCC1CCCCN1CCCNC(=O)c1c(O)nc2cc(C)ccn2c1=O (stereo unspecified) -7.78%, COc1cccc(CNC(=O)Cn2c(=O)nc(-c3ccccc3F)c3cc(Cl)ccc32)c1 4.49%, COc1ccc(Nc2oc(/C=C/c3cc(OC)c(OC)c(OC)c3)nc2C#N)cc1 -15.6%, CC1CCN(S(=O)(=O)c2ccc3c(c2)N(CC(=O)NC(C)(C)C)C(=O)CS3)CC1 -1.29%, Cc1ccccc1C(=O)Nc1cccc(C(=O)OCc2cc(=O)n3c(C)csc3n2)c1 -22.3%, COc1ccc(CNC(=O)c2ccc(NC(=O)N3CCSc4ncccc43)cc2)c(OC)c1 -15.9%, CCOc1ccc2oc(=O)cc(CN3CCN(C(=O)c4cccc(Cl)c4)CC3)c2c1 -15.7%, Cc1ccc(C)c(Nc2nn3c(=O)c4ccc(C(=O)N(C)Cc5ccccc5)cc4nc3s2)c1 -22.7%, Clc1ccc2ncc(-c3cccc(NC4CNC4)n3)n2c1 -6.06%, COC(=O)c1ccccc1NC(=O)c1sc2nc(C)cc(C)c2c1NC(=O)c1ccccc1Cl -21.1%, Cc1cc(/C=C(\C#N)C(=O)Nc2ccccc2)c(C)n1-c1ccc(F)cc1 -5.07%, CCOC(=O)NNc1ccc(N(CC)CC(C)O)nn1 (stereo unspecified) -2.09%, COc1ccc2c(CNCc3cccs3)c(C(=O)O)n(Cc3cccc(F)c3)c2c1 -23.6%, CC(CNC(=O)c1ccc2nc(CCc3ccccc3)oc2c1)c1ccccc1 (stereo unspecified) -10.2%, COc1ccc(NC(=O)c2ncoc2-c2ccco2)cc1Cl -17%, CCOC(=O)c1cccc(NC(=O)C2CCN(S(=O)(=O)c3c(C)noc3/C=C/c3ccc(C)cc3)CC2)c1 -40.6%, COc1cc2nc(-c3cc(F)ccc3O)nc(N[C@@H]3CNC[C@@H]3C(C)(C)O)c2cc1OC 4.67%, COc1cc(NC(=O)c2nc(-c3ccc(Cl)cc3)n3c2CCCCC3)cc(OC)c1OC 10.1% [at 11.5 µM, percent change from vehicle, -100% = no light], O=C(Cc1ccccc1)Nc1sc2c(c1C(=O)Nc1ccccc1Cl)CCCC2 -14.6%, COc1ccc(CNC(=O)c2cc(C3CC3)nc3c2c(C)nn3-c2cccc(Cl)c2C)cc1 -5.77%, Cc1cccc(C(=O)Nc2ccc3nc(SCC(=O)N4CCc5ccccc54)sc3c2)c1 -7.51%, CCn1c(=O)n(-c2ccc3c(c2)OCO3)c2nc(-c3cc(OC)ccc3OC)nc(C(N)=O)c21 -5.19%, COc1ccc(CNC(=O)Cn2ccc3cc(S(=O)(=O)N4CCCC4)ccc32)c(OC)c1 -18.3%, Cc1ccc(CN2CCc3nc(N4CCN(c5ccccc5F)CC4)ncc3C2)s1 -33%, Cc1ccc2oc(=O)c3cc(C(=O)NCc4ccc(Cl)cc4)sc3c2c1 -2.6%, Cc1ccc(NC(=O)C2CCCN2S(=O)(=O)c2cccc3nsnc23)c(Br)c1 (stereo unspecified) -23.1%, COc1ccc(CNC(=O)c2ccc(NC(=O)N3CCCCc4ccccc43)cc2)c(OC)c1 -8.21%, Cc1cc(SCC(=O)NCc2ccccc2Cl)nc(=O)[nH]1 8.19%, Cc1cccc(-c2nc(C)c(CCNC(=O)C(=O)Nc3c(C)cc(C)cc3C)s2)c1 -11.2%, COc1ccc(-c2csc3nc(-c4ccc(F)cc4)oc(=O)c23)cc1OC -16.3%, C#CCC(Cc1cnc2nc(N)nc(N)c2n1)c1ccc(C(=O)N[C@@H](CCC(=O)O)C(=O)O)cc1 (stereo partly specified) 18.7%, Cc1cccc(C)c1NC(=O)CCS(=O)(=O)c1ccc2c(c1)n(C)c(=O)c(=O)n2C -22.2%, Cc1ccc(-c2noc(CSc3nnc(C)n3-c3ccc(F)cc3)n2)cc1 -24.1%, CCN(CC)C(=O)Cn1c(=O)n(CCCCCC(=O)Nc2ccccc2)c(=O)c2sccc21 -0.806%, NC(=O)C(=O)N/N=C/c1ccc([N+](=O)[O-])o1 -0.352%, COC(=O)c1ccccc1NC(=O)Cn1c(=O)cc(-c2ccccc2)c2c(C)nn(C)c21 -7.26%, CCOC(=O)c1sc2ncn(CC(=O)Nc3cc(C)cc(C)c3)c(=O)c2c1C -9.57%
